Measured values from the supplement of paper PMC10126150.
Values marked as one replicate rest on one cluster of the flow cell; about a third of the high ones do not repeat.

Tested on: ATP
Experiment: switch fluorescence ratio, 500 uM ATP over buffer (Cy3 cluster intensity, sum of 5 cycles each) (fold (ratio)); higher = stronger signal-on switching upon ATP binding; sequences stand for … in TCGTCGGCAGCGTCAGATGTGTATAAGAGACAGTTTTTTTTTTTTTTTTTTTTTTTTT…TC
Conditions: aptamer strand: ATP DNA aptamer (quencher-CACCTGGGGGAGTATTGCGGAGGAAGG + anchor), 100 nM annealed; ATP concentration: 500 uM; one replicate
Procedure, shortened: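 Cy3-labelled switching-strand clusters on a modified Illumina MiSeq flow-cell were annealed to 100 nM quencher-labelled ATP aptamer and imaged first in selection buffer, then after 15 min with 500 uM ATP at 22 °C. NaOH stripping and re-annealing separated each of five buffer/ATP cycles, and clusters outside 100-1000 RFU were excluded. The fluorescence ratio sums target-cycle Cy3 intensity over buffer-cycle Cy3 intensity per cluster and averages it per switch-domain sequence.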
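Also: ATP exposure 15 min at 22 °C before imaging.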

Sequence | switch fluorescence ratio
GAATTCATTA | 1.01
CTTAGATACT | 1.02
ATCAAGCTGC | 0.944
AAGCGTGAAT | 1.02
CGGAAGATAA | 0.959
TTGGCTGTCA | 0.981
CTTAGAACGG | 0.996
ATTTGATTGC | 1.01
GATAGTTTAT | 1
CGGTCATTAC | 2.3
TCTGGTTCGT | 0.986
GGTGACAGTG | 1.06
GATTAGTGCA | 1.04
GGATACCAAG | 1.01
TTCGTAACTA | 1.03
GCCTTTAACT | 1.01
ACCGTTATCC | 1.2
CAACTGAGTT | 1.01
TGTTGCACAT | 0.987
GCTGAAGATT | 0.996
CTTTGGAGTT | 1.03
ACGTCTAAAA | 1.13
AAGTAACGTA | 1.08

Sequence | switch fluorescence ratio
CCTGAAGTT | 1.01
AGAAACTCTC | 1.05
AAGGATCGGA | 1.02
TGAGGCAACT | 1.1
CCCAATATGC | 2.56
TGATTGGAA | 1.02
CCTTGGGGTC | 1.01
CAGTCTAGGT | 0.983
GGAGTCGAGT | 1.03
CGCTGCGGGC | 1.23
CTCGAAAATG | 1.03
CTTCCATTCG | 1.26
TAACCAGC | 1.01
GCGCCGGTTC | 0.981
GGCAGCTATA | 1.19
ATGTTTTTAA | 1.01
TTTATAGAAT | 0.951
TAGCGTTATT | 1.04
TGCGCTCGAG | 0.982
GAGAATCCG | 1.01
TCACTTTTGT | 1
GATTCTATGT | 0.989
TCAACGGGCT | 1.06

Sequence | switch fluorescence ratio
TATTCAAT | 1.02
GAATCGGCAA | 3.88
GTTCACGCCA | 1.22
CTTTCCGCGG | 1.34
TATAGGGCTT | 0.96
CCACAAGTAA | 1.41
ATCTCACTA | 1.02
GGTGCAGGAA | 1.05
GCGGGTGCGC | 1
CGTATACAGG | 1
TTCGAAAATC | 1.04
CCCGTGTCCT | 1.01
ACCATTTTAA | 0.953
TTACCGTATT | 1.06
TCAAGACGTT | 1.04
TGAGAGAGCG | 1.14
TGAGGCTGAG | 1.02
TAAACCGCGC | 2.55
ACTTCCCTCG | 1.91
CTACTGTCCG | 0.98
GTAGGATGCT | 0.996
CCCCGCCTCG | 1.83
AGTAATCTA | 1.02

Sequence | switch fluorescence ratio
CAGTCGTAGA | 0.996
AAACGGTCGG | 0.989
CGAAAGGTGA | 1.02
TATGGACTGG | 1.01
ACACAATGTA | 0.998
ACACCGTACT | 1.47
AGCACTATTA | 1.01
AGTGTTCGCA | 1
TGAAAGACCG | 1.05
GTTAGCCACA | 0.994
TAGCTTCGCC | 1.07
TATCACGTAG | 1.07
CAATGTTGTA | 1.01
TAGCGATAT | 1.65
TCAGCACGCA | 1.5
TGCCTGCATA | 0.992
AGGATTTTAT | 1.03
GATATTTACA | 1.03
GCAGCTACAT | 1.1
CAGTCGGGG | 1
TGGCTCTTTT | 0.953
TTGGTGGCTC | 1.04
ATTAATGTAT | 0.973

Sequence | switch fluorescence ratio
TCATATTATA | 1.03
CGGCCCGTCA | 1
GTCGCGTTCA | 0.989
TTAGTGCG | 1.04
AAGGAGGTG | 1.06
AAGGAATGGG | 0.955
CGATGTACGG | 1.02
CACCAATAAT | 1.09
GTTTAGGTCA | 0.98
GCGTTCAATT | 0.99
GCAGTGCACG | 1.03
CATTAAGCAC | 4.3
CGCCGACGGT | 1.04
TTATAGGACT | 1.04
TCGAGGTGCG | 1.08
AAGTTGGGCG | 1.06
CTTTTTCAG | 0.985
GAAGTGTGAC | 1.04
AGCACGGGAC | 1.39
AGATTGTGTA | 1.01
CACTGATGAT | 1.01
CGAGGCAAGG | 3.41
GGGTGTGGGC | 0.955

Sequence | switch fluorescence ratio
CGTGTTGACT | 1.01
TAACAAGCCC | 0.922
TATAGAAACT | 1.03
CGAGGGTGAA | 1.01
GGGCAGGTG | 2.67
CCGATTTTTG | 0.971
CTAGGTCTAT | 1.02
TTATCCGTC | 1.02
TAACCGTCAT | 1.05
AGGCCTTACT | 1.11
ACCACTGTAC | 1.6
GGAGGGAAAA | 0.989
AGGCATCAAA | 0.997
GAGTTTCCGG | 0.949
CGGAGAACGA | 0.984
ACGTAGGACC | 1.04
TTAGCAAATT | 1.8
TCGAGATCAC | 1.01
TACGCCAGAT | 1.09
TCTTGGTCA | 0.982
TAAGTCAGGA | 1.01
ACGTACGTCC | 1.46
CCAGCTTTGA | 1.02

Sequence | switch fluorescence ratio
TCTACTTCAT | 1.01
GCTGTCCCTG | 0.982
GACGCAGCTT | 1.21
GGCTGGGAAC | 0.984
CTGGGGAACG | 1.05
GTCGCCGGGA | 1.05
TCGATAGTG | 0.95
GTCTATATTC | 0.981
AACGCTGTAT | 1.04
GCCTACGTGC | 1.09
CTGACGTAAC | 3.6
AAATAGATTT | 0.983
GGTTCTCTGC | 1.02
CCTCGTGTCC | 1.41
TGTCTACCAA | 1.03
AGGCGGCTGC | 0.961
TATCAGGACT | 0.981
CGTGGGTTAT | 1.04
CCTCGCCATT | 2.11
